The other results are listed elsewhere or left out.
Legend:
Assay in all cases: glycan array binding signal (z-score within array); higher = stronger binding
Conditions in all cases: glycan notation: IUPAC condensed, linker removed
Fuc(a1-2)Gal = target: Fuc(a1-2)Gal
Summary of the method: (§1)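 From the Consortium for Functional Glycomics database, 3228 arrays were curated, keeping only those whose protein sequence was available. Binding is given as a within-array Z-score averaged across arrays sharing a protein sequence and across linkers. Negative Z-scores can be read as non-binding.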

Fuc(a1-2)Gal(b1-3)GalNAc = target: Fuc(a1-2)Gal(b1-3)GalNAc
Summary of the method: as §1

[1] = target: Fuc(a1-2)Gal(b1-3)GalNAc(a1-3)[Fuc(a1-2)]Gal(b1-4)Glc
Summary of the method: as §1

[2] = target: Fuc(a1-2)Gal(b1-3)GalNAc(a1-3)[Fuc(a1-2)]Gal(b1-4)GlcNAc
Summary of the method: as §1

[3] = target: Fuc(a1-2)Gal(b1-3)GalNAc(b1-3)Gal
Summary of the method: as §1

[4] = target: Fuc(a1-2)Gal(b1-3)GalNAc(b1-3)Gal(a1-4)Gal(b1-4)Glc
Summary of the method: as §1

[5] = target: Fuc(a1-2)Gal(b1-3)GalNAc(b1-4)[Neu5Ac(a2-3)]Gal(b1-4)Glc
Summary of the method: as §1

Fuc(a1-2)Gal(b1-3)GlcNAc = target: Fuc(a1-2)Gal(b1-3)GlcNAc
Summary of the method: as §1

[6] = target: Fuc(a1-2)Gal(b1-3)GlcNAc(b1-2)Man(a1-3)[Fuc(a1-2)Gal(b1-3)GlcNAc(b1-2)Man(a1-6)]Man(b1-4)GlcNAc(b1-4)GlcNAc
Summary of the method: as §1

[7] = target: Fuc(a1-2)Gal(b1-3)GlcNAc(b1-2)Man(a1-3)[Fuc(a1-2)Gal(b1-3)GlcNAc(b1-2)Man(a1-6)]Man(b1-4)GlcNAc(b1-4)[Fuc(a1-6)]GlcNAc
Summary of the method: as §1

[8] = target: Fuc(a1-2)Gal(b1-3)GlcNAc(b1-3)Gal(b1-4)Glc
Summary of the method: as §1

[9] = target: Fuc(a1-2)Gal(b1-3)GlcNAc(b1-3)GalNAc
Summary of the method: as §1

[10] = target: Fuc(a1-2)Gal(b1-3)GlcNAc(b1-3)[Fuc(a1-2)Gal(b1-3)GlcNAc(b1-6)]GalNAc
Summary of the method: as §1

[11] = target: Fuc(a1-2)Gal(b1-3)GlcNAc(b1-3)[Gal(b1-4)GlcNAc(b1-6)]Gal(b1-4)Glc
Summary of the method: as §1

[12] = target: Fuc(a1-2)Gal(b1-3)GlcNAc(b1-3)[Neu5Ac(a2-6)Gal(b1-4)GlcNAc(b1-6)]Gal(b1-4)Glc
Summary of the method: as §1

[13] = target: Fuc(a1-2)Gal(b1-3)GlcNAc6S
Summary of the method: as §1

[14] = target: Fuc(a1-2)Gal(b1-3)[Fuc(a1-4)]GlcNAc
Summary of the method: as §1

[15] = target: Fuc(a1-2)Gal(b1-3)[Fuc(a1-4)]GlcNAc(b1-2)Man(a1-3)[Fuc(a1-2)Gal(b1-3)[Fuc(a1-4)]GlcNAc(b1-2)Man(a1-3)]Man(b1-4)GlcNAc(b1-4)GlcNAc
Summary of the method: as §1

[16] = target: Fuc(a1-2)Gal(b1-3)[Fuc(a1-4)]GlcNAc(b1-2)Man(a1-3)[Fuc(a1-2)Gal(b1-3)[Fuc(a1-4)]GlcNAc(b1-2)Man(a1-6)]Man(b1-4)GlcNAc(b1-4)[Fuc(a1-6)]GlcNAc(b1-4)[Fuc(a1-6)]GlcNAc
Summary of the method: as §1

[17] = target: Fuc(a1-2)Gal(b1-3)[Fuc(a1-4)]GlcNAc(b1-3)[Fuc(a1-3)[Gal(b1-4)]GlcNAc(b1-6)]Gal(b1-4)Glc
Summary of the method: as §1

[18] = target: Fuc(a1-2)Gal(b1-3)[Fuc(a1-4)]GlcNAc(b1-3)[Gal(b1-4)GlcNAc(b1-6)]Gal(b1-4)Glc
Summary of the method: as §1

Fuc(a1-2)Gal(b1-4)Glc = target: Fuc(a1-2)Gal(b1-4)Glc
Summary of the method: as §1

Fuc(a1-2)Gal(b1-4)Glc6S = target: Fuc(a1-2)Gal(b1-4)Glc6S
Summary of the method: as §1

Fuc(a1-2)Gal(b1-4)GlcNAc = target: Fuc(a1-2)Gal(b1-4)GlcNAc
Summary of the method: as §1

[19] = target: Fuc(a1-2)Gal(b1-4)GlcNAc(b1-2)Man
Summary of the method: as §1

[20] = target: Fuc(a1-2)Gal(b1-4)GlcNAc(b1-2)Man(a1-3)[Fuc(a1-2)Gal(b1-4)GlcNAc(b1-2)Man(a1-6)]Man(b1-4)GlcNAc(b1-4)GlcNAc
Summary of the method: as §1

[21] = target: Fuc(a1-2)Gal(b1-4)GlcNAc(b1-2)Man(a1-3)[Fuc(a1-2)Gal(b1-4)GlcNAc(b1-2)Man(a1-6)]Man(b1-4)GlcNAc(b1-4)[Fuc(a1-6)]GlcNAc
Summary of the method: as §1

[22] = target: Fuc(a1-2)Gal(b1-4)GlcNAc(b1-2)[Fuc(a1-2)Gal(b1-4)GlcNAc(b1-4)]Man(a1-3)[Fuc(a1-2)Gal(b1-4)GlcNAc(b1-2)Man(a1-6)]Man(b1-4)GlcNAc(b1-4)GlcNAc
Summary of the method: as §1

[23] = target: Fuc(a1-2)Gal(b1-4)GlcNAc(b1-3)Gal(b1-4)GlcNAc
Summary of the method: as §1

[24] = target: Fuc(a1-2)Gal(b1-4)GlcNAc(b1-3)Gal(b1-4)GlcNAc(b1-2)Man(a1-3)[Fuc(a1-2)Gal(b1-4)GlcNAc(b1-3)Gal(b1-4)GlcNAc(b1-2)Man(a1-6)]Man(b1-4)GlcNAc(b1-4)GlcNAc
Summary of the method: as §1

B1: Cohesin-hDCIR (Homo sapiens) (protein)
chain: LDDLDAVRIKVDTVNAKPGDTVRIPVRFSGIPSKGIANCDFVYSYDPNVLEIIEIEPGDIIVDPNPDKSFDTAVYPDRKIIVFLFAEDSGTGAYAITKDGVFATIVAKVKEGAPNGLSVIKFVEVGGFANNDLVEQKTQFFDGGANVGDTTEPATPTTPVTTPTTTDDLDAASQKYSQLLEKKTTKELVHTTLECVKKNMPVEETAWSCCPKNWKSFSSNCYFISTESASWQDSEKDCARMEAHLLVINTQEEQDFIFQNLQEESAYFVGLSDPEGQRHWQWVDQTPYNESSTFWHPREPSDPNERCVVLNFRKSPKRWGWNDVNCLGPQRSVCEMMKIHLHHHHHH
Fuc(a1-2)Gal
  glycan array binding signal (z-score): 0.128
Fuc(a1-2)Gal(b1-3)GalNAc
  glycan array binding signal (z-score): -0.617
[1]
  glycan array binding signal (z-score): -0.686
[2]
  glycan array binding signal (z-score): -0.457
[3]
  glycan array binding signal (z-score): 0.634
[4]
  glycan array binding signal (z-score): 1.73
[5]
  glycan array binding signal (z-score): -0.353
Fuc(a1-2)Gal(b1-3)GlcNAc
  glycan array binding signal (z-score): -0.203
[6]
  glycan array binding signal (z-score): 0.143
[7]
  glycan array binding signal (z-score): -0.479
[8]
  glycan array binding signal (z-score): -0.653
[9]
  glycan array binding signal (z-score): -0.456
[10]
  glycan array binding signal (z-score): -0.364
[11]
  glycan array binding signal (z-score): 0.456
[12]
  glycan array binding signal (z-score): -0.471
[13]
  glycan array binding signal (z-score): -0.481
[14]
  glycan array binding signal (z-score): -0.373
[15]
  glycan array binding signal (z-score): 0.201
[16]
  glycan array binding signal (z-score): -0.479
[17]
  glycan array binding signal (z-score): -0.643
[18]
  glycan array binding signal (z-score): -0.479
Fuc(a1-2)Gal(b1-4)Glc
  glycan array binding signal (z-score): 0.154
Fuc(a1-2)Gal(b1-4)Glc6S
  glycan array binding signal (z-score): -0.093
Fuc(a1-2)Gal(b1-4)GlcNAc
  glycan array binding signal (z-score): -0.064
[19]
  glycan array binding signal (z-score): -0.618
[20]
  glycan array binding signal (z-score): 0.047
[21]
  glycan array binding signal (z-score): -0.285
[22]
  glycan array binding signal (z-score): -0.378
[23]
  glycan array binding signal (z-score): -0.255
[24]
  glycan array binding signal (z-score): -0.431
